In the supplement of paper PMC12217912:
This is one part of the list. Sequences were assembled here from the parent chain. Values near 0.05 are background.

B1: TEV protease; numbered along this chain (parent)
chain: MGESLFKGPRDYNPISSSICHLTNESDGHTTSLYGIGFGPFIITNKHLFRRNNGTLVVQSLHGVFKVKDTTTLQQHLVDGRDMIIIRMPKDFPPFPQKLKFREPQREERICLVTTNFQTKSMSSMVSDTSCTFPSGDGIFWKHWIQTKDGQCGSPLVSTRDGFIVGIHSASNFTNTNNYFTSVPKNFMELLTNQEAQQWVSGWRLNADSVLWGGHKVFMVKPEEPFQPVKEATQL

Variants of: B1
Assay: raw area under fraction-flipped curve 0-4 h after induction (AUC4h, not background-subtracted), DNA-recorder readout of cleavage of the substrate (dimensionless); higher = more cleavage of the substrate by the protease variant
Conditions: temperature: 34 °C; time window: 0-4 h after rhamnose induction
Procedure: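 In vivo DNA recorder in E. coli TOP10(DE3) ΔrhaA at 34 °C. Each TEVp single-site mutant (parent TEVp 0) is paired with a single-site variant of the 7-mer TEVs (canonical ENLYFQ|S). The substrate sits between flexible linkers in a Bxb1-sfGFP-TEVs-SsrA fusion, so cleavage stabilises Bxb1 and speeds flipping of a recombination array, read by NGS. The value is the raw area under the fraction-flipped curve over 0-4 h after rhamnose induction (AUC4h), with ≥20 reads per time point. It is not background-subtracted; inactive controls average about 0.047.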
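Also: Bxb1 expression induced with 0.2% (w/v) L-rhamnose at OD600 near 0.5, cultures sampled hourly, flipped fraction per protease–substrate barcode pair counted by paired-end Illumina sequencing.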

Variant | area with substrate ENLAFQS | area with substrate ENLCFQS | area with substrate ENLDFQS | area with substrate ENLEFQS | area with substrate ENLFFQS | area with substrate ENLGFQS | area with substrate ENLHFQS | area with substrate ENLIFQS | area with substrate ENLKFQS | area with substrate ENLLFQS | area with substrate ENLMFQS | area with substrate ENLNFQS | area with substrate ENLPFQS | area with substrate ENLQFQS | area with substrate ENLSFQS | area with substrate ENLWFQS | area with substrate ENLRFQS | area with substrate ENLTFQS | area with substrate ENLVFQS
N206G | 0.102 | 0.086 | 0.0731 | 0.0669 | 0.0823 | 0.0715 | 0.08 | 0.103 | 0.0757 | 0.0777 | 0.0675 | 0.053 | 0.0485 | 0.0673 | 0.0631 | 0.0786 |  |  | 
W212K | 0.0582 | 0.0681 | 0.0624 | 0.0699 | 0.0641 |  | 0.0753 |  | 0.0631 | 0.0687 |  | 0.0615 | 0.066 | 0.0872 | 0.0585 |  | 0.0515 | 0.0613 | 
G213F | 0.0567 | 0.0557 | 0.0657 |  | 0.0595 | 0.0554 | 0.0594 | 0.0536 |  |  |  | 0.0546 | 0.0609 |  |  | 0.0609 | 0.0392 |  | 0.0524
H215D | 0.0544 | 0.0542 | 0.0599 | 0.0733 | 0.0596 | 0.105 | 0.0687 | 0.0533 | 0.0641 | 0.086 |  | 0.0597 | 0.073 | 0.0641 | 0.065 |  | 0.062 |  | 0.0565
H215W | 0.0561 | 0.0687 | 0.0671 | 0.052 | 0.0655 | 0.065 | 0.0662 |  | 0.0666 | 0.0541 | 0.0044 | 0.0566 |  |  | 0.0545 | 0.0914 | 0.0733 |  | 0.0645
V217A | 0.0648 |  | 0.0557 | 0.0537 | 0.0708 | 0.0262 |  | 0.0779 |  | 0.0718 |  | 0.068 | 0.0735 |  | 0.0685 | 0.0923 |  |  | 0.0619
M219C | 0.0543 |  | 0.0765 | 0.0709 | 0.0932 |  | 0.0597 |  | 0.0688 |  |  | 0.0729 | 0.0736 | 0.0614 | 0.0991 | 0.0631 |  |  | 
M219V | 0.0718 |  |  | 0.07 | 0.0769 |  | 0.0731 | 0.088 | 0.0785 |  | 0.0756 | 0.0782 | 0.0557 | 0.0603 | 0.0531 |  | 0.0726 | 0.0604 | 
V220I | 0.0651 |  | 0.0673 | 0.105 | 0.0958 |  |  | 0.0776 | 0.0806 |  |  |  | 0.0563 |  | 0.0538 |  |  | 0.0813 | 
V220P | 0.0631 | 0.0652 | 0.0635 | 0.0635 | 0.0769 | 0.0843 | 0.0671 | 0.105 | 0.0741 |  |  | 0.0632 | 0.0599 | 0.0643 | 0.0664 |  | 0.0771 |  | 
P222C | 0.0941 | 0.0678 | 0.0571 | 0.0559 | 0.0733 | 0.0613 | 0.0643 | 0.0737 | 0.0507 | 0.0704 |  | 0.0589 |  |  |  | 0.0746 | 0.0458 |  | 
P222S | 0.0611 |  | 0.0632 | 0.081 | 0.081 |  | 0.0523 |  | 0.0804 | 0.0825 | 0.0806 | 0.0618 | 0.0613 | 0.0569 | 0.0604 | 0.0722 | 0.0733 |  | 
E223T | 0.0599 | 0.0936 | 0.0659 | 0.0714 | 0.096 | 0.0646 | 0.0698 | 0.0925 | 0.0597 |  | 0.0231 | 0.0595 | 0.0595 | 0.0764 | 0.0637 |  | 0.0783 |  | 0.0747
P225F | 0.0694 |  | 0.0679 | 0.0622 |  | 0.0668 |  | 0.0688 | 0.069 | 0.0683 |  | 0.0641 |  | 0.0605 | 0.0518 | 0.0626 | 0.0765 |  | 0.078
P225I | 0.0626 |  | 0.0465 |  | 0.0745 | 0.0707 | 0.0598 | 0.0985 | 0.102 | 0.095 | 0.0673 | 0.067 |  |  |  |  | 0.0563 |  | 
F226W | 0.094 | 0.0783 | 0.0594 | 0.071 | 0.108 |  | 0.0756 |  | 0.0701 | 0.0668 | 0.0752 | 0.0661 | 0.0621 |  | 0.068 |  | 0.0629 |  | 
K230M | 0.062 | 0.0625 |  | 0.0587 | 0.0757 | 0.0517 | 0.0749 | 0.0723 | 0.0729 | 0.0673 | 0.0696 | 0.0587 | 0.0454 | 0.082 | 0.055 | 0.0717 |  | 0.0587 | 0.0838
K230V | 0.0625 |  | 0.0601 |  | 0.109 |  | 0.0785 |  | 0.0718 | 0.0702 |  | 0.0663 | 0.0548 | 0.0527 | 0.08 | 0.0078 |  |  | 
E231H | 0.0673 |  | 0.0765 |  |  |  | 0.07 |  | 0.069 | 0.062 |  | 0.0453 | 0.0505 | 0.0469 | 0.0587 |  | 0.0897 |  | 
T233H | 0.0645 |  | 0.0598 |  |  |  |  | 0.0986 |  | 0.0777 | 0.114 | 0.0843 | 0.0637 |  | 0.0702 |  | 0.0752 |  | 0.108
T233K | 0.0669 | 0.0747 |  |  | 0.0928 | 0.0651 | 0.073 |  | 0.0934 | 0.109 |  | 0.0635 | 0.0621 | 0.0426 | 0.055 | 0.0616 |  |  | 
Q234I | 0.083 | 0.0656 | 0.0611 |  | 0.0883 |  | 0.0721 |  | 0.0779 |  |  | 0.0668 | 0.0615 |  | 0.0591 |  |  |  | 
Q234K | 0.0564 | 0.0777 | 0.0575 |  | 0.0799 | 0.0651 | 0.0768 | 0.0859 | 0.0828 | 0.0766 | 0.0742 |  | 0.0806 | 0.0743 |  | 0.0691 | 0.0798 |  | 
G2M |  | 0.0345 |  |  |  |  | 0.103 |  |  |  |  | 0.0689 |  |  |  |  |  |  | 
S4R |  | 0.0737 | 0.0564 | 0.0627 | 0.0942 | 0.0709 | 0.0343 |  | 0.0911 | 0.0848 | 0.0951 | 0.0613 | 0.0313 | 0.113 | 0.0479 | 0.0741 | 0.0825 | 0.0855 | 
R10V |  | 0.0637 | 0.0762 | 0.0737 | 0.0765 |  | 0.0786 |  | 0.0767 |  | 0.0554 | 0.0719 | 0.0567 | 0.0704 | 0.0673 | 0.0654 | 0.074 |  | 0.0027
C20R |  | 0.0453 | 0.0524 | 0.0783 | 0.0463 |  | 0.0464 | 0.0444 | 0.0458 | 0.0499 |  | 0.0409 | 0.0557 | 0.0445 | 0.0423 | 0.033 | 0.0567 |  | 
